No constants are given. Whether binding was seen depends on the method and setting. In cells and extracts the contact can be indirect. Some binding calls cover weakened binding; strength is not graded here.
Experiments:
GST-tagged NDRG1 = GST-tagged NDRG1 (UniProt Q92597); assay: pull-down; GST fusion proteins immobilised on Glutathione Sepharose 4B, incubated with total cell lysate of HUVECs overnight at 4 °C; X-buffer (50 mM Tris-HCl pH 8.0, 1 mM EDTA, 120 mM NaCl, 0.5% NP-40, 10% glycerol, 1 mM PMSF); western blot with anti-PLCγ1; only the target purified
[1] = molecular target: GST-tagged NDRG1 deletion mutant Δ1 (N-terminal domain 1–89AA deleted) (UniProt Q92597); assay: as above
[2] = molecular target: GST-tagged NDRG1 deletion mutant Δ3 (total phosphorylation sites on the C-terminal domain, 307–394AA, deleted) (UniProt Q92597); assay: as above
[3] = molecular target: N-myc downstream regulated gene 1 (NDRG1), endogenous in HUVECs (human (endogenous in HUVECs)) (UniProt Q92597); assay: proximity ligation; Duolink PLA In Situ Red kit in HUVECs, mouse anti-PLCγ1 and rabbit anti-NDRG1 as primary antibodies; absence and presence of VEGF-A (5 min)
[4] = molecular target: N-myc downstream regulated gene 1 (NDRG1), endogenous in HUVECs (human (endogenous in HUVECs)) (UniProt Q92597); assay: co-IP; HUVEC extract (IP lysis buffer: 50 mM Tris-HCl pH 8.0, 250 mM NaCl, 1 mM EDTA, 10% glycerol, 0.3% NP-40) incubated overnight at 4 °C with antibodies to NDRG1 or PLCγ1 in NET-gel buffer, Protein G Agarose; western blot; cells with or without VEGF-A

Protein sequences, listed by entry. Tags and fused reporters are not part of them. Lines headed by an entry give the natural chain unless they say otherwise; changes in a name come on top. Chains listed by the source or under a name are the forms on record and can include a tag or linker. Residues count along the entry.
UniProt Q92597: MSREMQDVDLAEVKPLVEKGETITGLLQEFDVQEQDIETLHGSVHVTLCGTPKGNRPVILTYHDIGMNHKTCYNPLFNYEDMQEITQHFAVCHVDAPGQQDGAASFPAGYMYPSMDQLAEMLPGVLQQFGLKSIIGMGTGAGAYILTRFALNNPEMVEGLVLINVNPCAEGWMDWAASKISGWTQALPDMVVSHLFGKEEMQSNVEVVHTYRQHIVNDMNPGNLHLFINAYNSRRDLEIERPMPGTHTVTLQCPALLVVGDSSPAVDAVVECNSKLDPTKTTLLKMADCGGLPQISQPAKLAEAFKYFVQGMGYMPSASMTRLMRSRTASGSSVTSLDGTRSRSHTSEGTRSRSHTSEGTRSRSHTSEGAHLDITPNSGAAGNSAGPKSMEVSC
GST-tagged NDRG1 deletion mutant Δ3 (total phosphorylation sites on the C-terminal domain, 307–394AA, deleted): residues 1-306 of Q92597
GST-tagged NDRG1 deletion mutant Δ1 (N-terminal domain 1–89AA deleted): residues 90-394 of Q92597

B1: phospholipase Cγ1 (PLCγ1), endogenous in HUVECs (enzyme, UniProt P19174 1-1290)
chain: MAGAASPCANGCGPGAPSDAEVLHLCRSLEVGTVMTLFYSKKSQRPERKTFQVKLETRQITWSRGADKIEGAIDIREIKEIRPGKTSRDFDRYQEDPAFRPDQSHCFVILYGMEFRLKTLSLQATSEDEVNMWIKGLTWLMEDTLQAPTPLQIERWLRKQFYSVDRNREDRISAKDLKNMLSQVNYRVPNMRFLRERLTDLEQRSGDITYGQFAQLYRSLMYSAQKTMDLPFLEASTLRAGERPELCRVSLPEFQQFLLDYQGELWAVDRLQVQEFMLSFLRDPLREIEEPYFFLDEFVTFLFSKENSVWNSQLDAVCPDTMNNPLSHYWISSSHNTYLTGDQFSSESSLEAYARCLRMGCRCIELDCWDGPDGMPVIYHGHTLTTKIKFSDVLHTIKEHAFVASEYPVILSIEDHCSIAQQRNMAQYFKKVLGDTLLTKPVEISADGLPSPNQLKRKILIKHKKLAEGSAYEEVPTSMMYSENDISNSIKNGILYLEDPVNHEWYPHYFVLTSSKIYYSEETSSDQGNEDEEEPKEVSSSTELHSNEKWFHGKLGAGRDGRHIAERLLTEYCIETGAPDGSFLVRESETFVGDYTLSFWRNGKVQHCRIHSRQDAGTPKFFLTDNLVFDSLYDLITHYQQVPLRCNEFEMRLSEPVPQTNAHESKEWYHASLTRAQAEHMLMRVPRDGAFLVRKRNEPNSYAISFRAEGKIKHCRVQQEGQTVMLGNSEFDSLVDLISYYEKHPLYRKMKLRYPINEEALEKIGTAEPDYGALYEGRNPGFYVEANPMPTFKCAVKALFDYKAQREDELTFIKSAIIQNVEKQEGGWWRGDYGGKKQLWFPSNYVEEMVNPVALEPEREHLDENSPLGDLLRGVLDVPACQIAIRPEGKNNRLFVFSISMASVAHWSLDVAADSQEELQDWVKKIREVAQTADARLTEGKIMERRKKIALELSELVVYCRPVPFDEEKIGTERACYRDMSSFPETKAEKYVNKAKGKKFLQYNRLQLSRIYPKGQRLDSSNYDPLPMWICGSQLVALNFQTPDKPMQMNQALFMTGRHCGYVLQPSTMRDEAFDPFDKSSLRGLEPCAISIEVLGARHLPKNGRGIVCPFVEIEVAGAEYDSTKQKTEFVVDNGLNPVWPAKPFHFQISNPEFAFLRFVVYEEDMFSDQNFLAQATFPVKGLKTGYRAVPLKNNYSEDLELASLLIKIDIFPAKENGDLSPFSGTSLRERGSDASGQLFHGRAREGSFESRYQQPFEDFRISQEHLADHFDSRERRAPRRTRVNGDNRL
binding (GST-tagged NDRG1): binds
binding [1]: binds
binding [2]: no binding
binding [3]: binds
binding [4]: binds

— article PMC7060337
